# Measurements as given in paper PMC4336329 (PLoS ONE, 2015).
# Hit rate of the full screen: of about 310,000 compounds, about 14,000 (4.5%) showed an effect of 50% or more. The effect is printed as a negative number. The list shows a part of the results.
# Target: human ether-à-go-go-related gene (hERG) potassium channel (human, UniProt Q12809)
# Test: primary screen, population patch clamp on CHO cells stably expressing hERG
# 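Note: peak tail current of the secondary pulse compared with the same well before compound.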
# Chain of human ether-à-go-go-related gene (hERG) potassium channel (Q12809 whole entry, looked up): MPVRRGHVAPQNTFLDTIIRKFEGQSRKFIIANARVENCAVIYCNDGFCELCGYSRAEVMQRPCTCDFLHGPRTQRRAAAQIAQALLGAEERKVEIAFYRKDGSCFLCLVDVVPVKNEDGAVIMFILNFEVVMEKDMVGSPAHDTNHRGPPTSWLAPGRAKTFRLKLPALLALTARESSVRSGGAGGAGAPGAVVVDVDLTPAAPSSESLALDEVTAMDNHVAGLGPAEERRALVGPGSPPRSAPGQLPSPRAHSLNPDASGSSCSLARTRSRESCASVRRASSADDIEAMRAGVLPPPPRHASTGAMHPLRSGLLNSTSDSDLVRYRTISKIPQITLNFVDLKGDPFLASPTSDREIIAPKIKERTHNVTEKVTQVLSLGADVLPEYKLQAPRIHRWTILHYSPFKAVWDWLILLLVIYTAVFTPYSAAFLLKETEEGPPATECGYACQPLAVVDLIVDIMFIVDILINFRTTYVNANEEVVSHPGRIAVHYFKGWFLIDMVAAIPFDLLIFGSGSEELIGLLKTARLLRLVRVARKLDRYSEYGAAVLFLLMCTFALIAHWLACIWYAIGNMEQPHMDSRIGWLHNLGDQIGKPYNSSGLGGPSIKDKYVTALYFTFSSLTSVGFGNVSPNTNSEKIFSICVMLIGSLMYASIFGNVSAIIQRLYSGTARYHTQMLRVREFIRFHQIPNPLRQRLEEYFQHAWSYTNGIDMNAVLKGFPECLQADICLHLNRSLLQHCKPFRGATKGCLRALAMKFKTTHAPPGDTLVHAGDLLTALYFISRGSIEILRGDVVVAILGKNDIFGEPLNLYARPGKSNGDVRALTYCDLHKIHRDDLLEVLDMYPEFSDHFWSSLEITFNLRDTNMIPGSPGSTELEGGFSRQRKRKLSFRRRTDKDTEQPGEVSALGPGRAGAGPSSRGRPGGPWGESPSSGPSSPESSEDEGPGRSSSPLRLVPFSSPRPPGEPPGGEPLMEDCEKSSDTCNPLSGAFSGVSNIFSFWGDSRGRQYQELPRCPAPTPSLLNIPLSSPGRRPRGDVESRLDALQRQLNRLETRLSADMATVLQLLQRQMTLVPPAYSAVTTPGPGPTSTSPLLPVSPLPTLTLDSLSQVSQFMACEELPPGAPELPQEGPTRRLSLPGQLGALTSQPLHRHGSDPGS
row,Structure (SMILES),"hERG current change (%, negative = inhibition) at 10uM [%]"
1,CCOC(=O)N1CCc2c(sc3ncn(C)c(=O)c23)C1,5.05
2,Cc1cccc2nc(CSc3ccc(Cl)cc3)cn12,-74.3
3,Cc1ccc(OCC(=O)NNC(=O)c2cc3ccccc3o2)cc1,-0.251
4,CC(C)Cn1c(CCNC(=O)c2ccco2)nc2ccccc21,-1.3
5,CCOC(=O)c1c(-c2ccc(C)cc2)csc1NC(=O)c1cccc(N2C(=O)CCC2=O)c1,0.102
6,Cc1ccc(C2=NC(C)(C)N=C2SCC(=O)Nc2ccc(Cl)cc2)cc1,-13.9
7,Cc1ccc(N2CCN(S(=O)(=O)c3ccc(-n4cnnn4)cc3)CC2)c(C)c1,11.7
8,CCN(C(=O)CSc1ncnc2sc(C)c(C)c12)C1CCS(=O)(=O)C1 (centres unmarked),-42.7
9,COc1ccc(OC)c(Nc2ncnc3sccc23)c1,-0.251
10,O=C(CSc1ncnc2c1cnn2-c1ccccc1Cl)N1CCN(C(=O)c2ccco2)CC1,-65.7
11,O=C(Nc1ccc(S(=O)(=O)N2CCCC2)cc1)c1ccc(Cl)nc1,-5.58
12,CCCOC(=O)C(C)n1c(-c2ccccc2)nc2ccccc2c1=O (centres unmarked),-5.65
13,Cn1c(=O)c2c(nc(NNC(=O)C(F)(F)F)n2C)n(C)c1=O,15
14,CCc1c(C2(O)CCCCC2)[nH]c2ccc(C#N)cc12,6.95
15,COc1ccc(CCNS(=O)(=O)c2ccc3c(c2)oc(=O)n3C)cc1OC,7
16,Cc1ccc(S(=O)(=O)Nc2ccccc2CNC2CCCCC2)cc1,-5.36
17,Cc1cccc(C)c1NC(=O)NC1(C(=O)NCc2ccncc2)CCCCC1,11
18,CCNc1nc(Oc2ccc(=O)[nH]n2)nc(N2CCOCC2)n1,21.9
19,CN1CCC(C)(O)C2CCCCC21 (centres unmarked),0.314
20,O=C(NCc1ccc(Cl)cc1Cl)c1ccc2nc[nH]c2c1,-5.75
21,C=C(C)COc1ccc(-c2n[nH]c(C)c2Oc2ccccc2OC)c(O)c1,-5.79
22,CN(/N=C/c1ccncc1)c1cnc2ccccc2n1,19.3
23,CC(=O)CSc1nnc(-c2ccc(S(=O)(=O)N3CCCC3)cc2)n1C,15.3

row,Structure (SMILES),"hERG current change (%, negative = inhibition) at 10uM [%]"
1,CN(C)S(=O)(=O)c1cc(C(=O)NCc2ccccc2)c(Cl)cc1Cl,-14.4
2,O=c1[nH]c2ccc(S(=O)(=O)N3CCN(c4ccc(F)cc4)CC3)cc2o1,-22.9
3,CC(=O)c1ccc(N(CC(=O)NC2CCCCC2)C(=O)CNC(=O)c2cccs2)cc1,-12.3
4,NC(=O)C1CNc2ccccc2O1 (centres unmarked),-0.67
5,O=C(N/N=C/c1ccccn1)c1cc(-c2ccncc2)nc2ccccc12,-13.6
6,Cc1ccc(C2Nc3ccccc3C(=O)N2CCN2CCNC2=O)cc1 (centres unmarked),-11.7
7,O=c1c2nnn(-c3cccc(F)c3)c2ncn1Cc1ccccn1,-15.3
8,CCOC(=O)/C=C1\SCC(=O)N1CC(=O)NCc1cccc(Cl)c1,-18.6
9,COc1ccc(NC(=O)Cn2c3ccccc3c3nc4n(c(=O)c32)CCS4)cc1,7.66
10,Clc1ccccc1CN1CCN(/N=C/C=C\c2ccco2)CC1,-13
11,Cc1ccc(Cn2nnc3c(=O)n(CC(=O)NCc4ccccc4)cnc32)cc1,6.5
12,CC(=O)Nc1cccc(OCC(=O)Nc2ccccc2)c1,12.3
13,c1ccc(-c2ccc(-c3cnc4n3CCCCC4)cc2)cc1,-21.8
14,Cc1ccc(NC(=O)C2CC(=O)N/C(=N/NC(=O)c3ccc(C)cc3)S2)cc1 (centres unmarked),4.9
15,O=C(O)CCC(=O)OCC1CCCCC1,3.3
16,CCOc1ccccc1CN1CCNC(=O)C1CC(=O)N(C)C1CCOCC1 (centres unmarked),17.5
17,O=c1[nH]cnc2c1C1(CCCC1)Cc1ccccc1-2,7.69
18,COc1ccc(C(=O)NC2CC3CCCC(C2)N3CC(C)C)cc1OC (centres unmarked),7.71
19,CCn1cc(C(=O)O)c(=O)c2cnc(N3CCN(C(=S)Nc4ccc(F)cc4)CC3)nc21,13.3
20,CN(/C(=N/S(=O)(=O)c1cccs1)c1ccccc1)c1ccc(O)cc1,13.6
21,Cc1cccnc1NC(=O)C1CC(=O)N(c2ccc3c(c2)OCCO3)C1 (centres unmarked),18
22,CCn1cc(CN2CCN(Cc3ccsc3)C(CCO)C2)cn1 (centres unmarked),-3.26
23,Cc1ccc(-c2csc3ncnc(SCC(=O)NCC4CCCO4)c23)cc1 (centres unmarked),-35.4

row,Structure (SMILES),"hERG current change (%, negative = inhibition) at 10uM [%]"
1,O=C(NCCC1CCCCN1S(=O)(=O)c1ccccc1)C(=O)Nc1ccc(F)cc1 (centres unmarked),-16.7
2,CN1CCN(C(=S)C(=O)Nc2ccccc2)CC1,26.1
3,O=C(NC(=S)Nc1ccccc1)c1cc(-c2ccccc2)nc2ccccc12,-4.97
4,CCOC(=O)[C@@H]1[C@H]2COc3ccccc3[C@@H]2N2C(=O)N(c3ccc(Cl)cc3)C(=O)[C@@]12C,-7.5
5,Cn1c(N)c(C(=O)COC(=O)c2ccccc2NCc2ccco2)c(=O)n(C)c1=O,21.4
6,O=C(c1ccc(OC2CCN(Cc3ccccn3)CC2)cc1)N1CCC[C@H]1CO,19.4
7,Cc1c(Cl)cccc1NC(=O)COC(=O)CCc1nc2ccccc2n1-c1ccccc1,-18.1
8,CC(c1ccccc1)C1CC(=O)N(c2ccc([N+](=O)[O-])cc2)C1=O (centres unmarked),-45
9,Cc1[nH]c2ccc(F)cc2c(=O)c1SC(F)(F)C(F)F,10.7
10,COCCC(=O)NC1CCCc2c1cnn2-c1cccc(C)c1C (centres unmarked),9.3
11,CC1=NN(C(N)=S)C(=O)C1N=Nc1ccccc1C(=O)O (centres unmarked),22.1
12,CCOc1ccccc1-n1c(SC(C)C(=O)NCC2CCCO2)nc2ccccc2c1=O (centres unmarked),-10.7
13,Cc1nc(NC(=O)c2ccco2)sc1C(=O)O,-7.53
14,CCC(=O)c1ccc(OCC(=O)OCC(=O)Nc2c(C)n(C)n(-c3ccccc3)c2=O)cc1,18.8
15,COc1ccccc1COc1ccc2c(C)c(CC(=O)O)c(=O)oc2c1C,20.2
16,COc1cc(C(=O)NCCNc2nc3c(C)c(C)ccc3cc2C#N)cc(OC)c1OC,8.26
17,O=C(Cc1coc(-c2ccc(F)cc2)n1)NCc1ccccc1,13.6
18,CCC(C(=O)NC(C)CCc1ccco1)n1nc(C)n2c(cc3occc32)c1=O (centres unmarked),-18
19,CCn1cc(C(=O)NCc2ccco2)c(=O)c2cc(S(=O)(=O)N3CCCCCC3)ccc21,-53.3
20,COc1ccc(N(CC(=O)NC2CCCC2)C(=O)c2ccc(C)s2)cc1OC,15.8
21,Cc1nnc(SCC(=O)N2CC(C)OC(C)C2)n1-c1ccccc1 (centres unmarked),5.1
22,CCN(CC)CCCNC(=O)C1CCN(C(=O)c2oc3cc4sc(N(C)C)nc4cc3c2C)CC1,12.6
23,NC(=O)c1ccc[n+](CC(=O)Nc2ccccc2C(=O)O)c1.[Cl-],-7.23

row,Structure (SMILES),"hERG current change (%, negative = inhibition) at 10uM [%]"
1,COCCNC(=S)N1CCN(c2cccc(C(F)(F)F)c2)CC1,-12.2
2,O=C(CCc1ccccc1)NCCS(=O)(=O)N1CCN(c2ccccc2)CC1,-22
3,CN1/C(=C\C=C(C#N)C#N)C(C)(C)c2ccccc21,11.5
4,CCOc1ccc(C(=O)OCC(=O)Nc2cc(C)on2)cc1OCC,-19.9
5,COC(=O)c1c(-c2ccc3ccccc3c2)csc1NC(=O)Cc1ccc(OC)c(OC)c1,8.06
6,CCC(CC)C(=O)Nc1ccc(Sc2ccc([N+](=O)[O-])cc2)cc1,-7.16
7,Cc1ccc(C)c(CNS(=O)(=O)c2ccc3c(c2)C(C)(C)C(=O)N3C)c1,-20.4
8,C=CCOC(=O)C1=C(C)NC(SCC)=C(C#N)C1c1ccc(Cl)cc1 (centres unmarked),4.87
9,CC(O)c1ccc(OCCN(C)c2ccccn2)cc1 (centres unmarked),12.9
10,CSc1ccc(S(=O)(=O)NC2CCCCCC2)cc1,-25.2
11,CCN(CC)S(=O)(=O)c1ccc(/C=C/C(=O)OCC(=O)c2c(N)n(C)c(=O)n(C)c2=O)cc1,11.5
12,CCOc1cccc(CNc2nnnn2C)c1,19.4
13,Cc1ccc(S(=O)(=O)N/N=C2/CC(=O)CC(C)(C)C2)cc1[N+](=O)[O-],7.57
14,Cc1ccc(C(=O)CSc2ncnc3ccccc23)o1,0.357
15,Cc1ccc(S(=O)(=O)CCC(O)c2ccc(Cl)cc2)cc1 (centres unmarked),2.64
16,Cc1cccc(NC(=O)NCCc2ccc(Cl)cc2)c1,25
17,COc1ccc(N(C(=O)Cn2nnc(-c3ccc(Cl)cc3)n2)C(C(=O)NCC2CCCO2)c2ccncc2)cc1 (centres unmarked),4.81
18,Cc1cc(C)cc(NC(=O)N2CCC(NC(=O)c3ccccc3C)CC2)c1,5.74
19,O=C(O)c1cnn2c(C(F)F)cc(C3CC3)nc12,3.73
20,COc1cccc(/C=C(/C(=O)OCC(=O)NCC2CCCO2)c2ccccc2)c1 (centres unmarked),13.7
